Measurements as given in PubChem BioAssay AID1030 (National Center for Advancing Translational Sciences (NCATS), 2008).
The campaign covered roughly 220,000 compounds. About 16,000 (7.3%) were called active. The shares of active, inactive and inconclusive entries below differ from those in the screen. Calls come from the whole dose curve; as a rule, active = well fitted inhibition curve with a large enough effect (not every such curve was filed as active); inconclusive = small, poorly fitted or top-dose-only effect, or another doubt; inactive = no such curve, though single readings can be large or run the other way. No potency is given beside an inconclusive call; the fits are too rough.
Potency is the fitted concentration of half-maximal effect; tags give direction and shape of the fitted curve.
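Throughout, for activity, negative = inhibition: plate controls were no enzyme wells and a reference inhibitor.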

What follows are compounds tested against Aldehyde dehydrogenase 1A1 (Homo sapiens) (UniProt P00352) (assay: qHTS Assay for Inhibitors of Aldehyde Dehydrogenase 1 (ALDH1A1)). Settings: Purified ALDH1A1, NADH fluorescence, propionaldehyde substrate; series mostly up to 75.3 µM; activity, negative = inhibition: at the top concentration.
UniProt P00352, sequence (P00352 whole entry, looked up): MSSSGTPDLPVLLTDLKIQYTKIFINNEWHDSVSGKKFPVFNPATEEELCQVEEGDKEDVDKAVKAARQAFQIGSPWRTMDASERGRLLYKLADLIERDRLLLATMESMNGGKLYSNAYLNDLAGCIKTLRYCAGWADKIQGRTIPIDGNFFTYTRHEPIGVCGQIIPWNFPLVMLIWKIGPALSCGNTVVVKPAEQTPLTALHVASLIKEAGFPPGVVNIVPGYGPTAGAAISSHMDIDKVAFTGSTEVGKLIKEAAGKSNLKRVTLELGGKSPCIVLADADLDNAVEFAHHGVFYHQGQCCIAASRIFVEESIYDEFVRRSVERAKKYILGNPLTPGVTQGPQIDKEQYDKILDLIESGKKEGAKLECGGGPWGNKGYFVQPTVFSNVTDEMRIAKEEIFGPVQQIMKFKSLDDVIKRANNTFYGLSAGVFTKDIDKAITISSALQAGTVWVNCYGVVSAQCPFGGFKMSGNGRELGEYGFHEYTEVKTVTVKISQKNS
COc1ccc(NS(=O)(=O)c2ccc(S(=O)(=O)N(C)C)cc2)cc1S(N)(=O)=O was tested, and the Potency was inconclusive [inhibitor, partial curve].
For C/C(=N\NS(=O)(=O)c1ccc(C)cc1)c1ccc(Br)s1, the Potency was inconclusive [inhibitor, single point].
CCCN(Cc1cc2cc(C)ccc2[nH]c1=O)C(=O)c1cccc(OC)c1 was tested, and the Potency was inconclusive [inhibitor, single point].
With CN(Cc1ccco1)c1cc(-c2cccc(C#N)c2)ncn1 the Potency was inconclusive [inhibitor, partial curve].
O=c1c(-c2ccccc2)nc2cnc(N3CCOCC3)nc2n1C1CC1 was tested, and the Potency was inconclusive [inhibitor, partial curve].
CC(NC(=O)OC(C)(C)C)C(=O)Oc1cc2oc(=O)cc(-c3ccccc3)c2cc1Cl (configuration not stated) was tested, and the Potency was inconclusive [inhibitor, partial curve].
COc1ccc(C(=O)CSc2n[nH]c(-c3ccncc3)n2)cc1[N+](=O)[O-] was tested, and the Potency was inconclusive [inhibitor, single point].
CCOCCCNC(=S)Nc1cc(C)cc(C)c1 was tested, and the “activity, negative = inhibition” value was inactive: 2.03%.
For CCn1cc(C(=O)Nc2ccc(C(=O)N3CCCC3)cc2)c(=O)c2ccc(C)nc21, the “activity, negative = inhibition” value was inactive: 11.1%.
In the case of CC(Sc1nnc2c(n1)C1(C)CCC2C1(C)C)C(=O)Nc1ccccc1 (configuration not stated), the “activity, negative = inhibition” value is reported as inactive: -11.7%.
In the case of CC(=O)c1cccc(CN2CCN(Cc3ccc(F)cc3)C(CCO)C2)c1 (configuration not stated), the Potency is reported as active: 28.2 µM.
For Cc1nnc(SCC(=O)NCc2ccc3c(c2)OCO3)s1, the Potency was inconclusive [inhibitor, single point].
With C/C1=C2N=C(/C=C3N=C(/C(C)=C4\[N-]C(C)(C5N=C1C(C)(CCC(=O)NCC(C)OP(=O)([O-])O[C@H]1C(O)C(n6cnc7cc(C)c(C)cc76)O[C@@H]1CO)C5CC(N)=O)C(C)(CC(N)=O)C4CCC(N)=O)C(C)(CC(N)=O)C\3CCC(N)=O)C(C)(C)C/2CCC(N)=O.[CH2-]C1OC(n2cnc3c(N)ncnc32)C(O)C1O.[Co] (some centres not stated) the “activity, negative = inhibition” value was inactive: -6.73%.
With NNc1nc2sc3c(c2c(=O)n1C1CCCCC1)CCN(Cc1ccccc1)C3 the Potency was inconclusive [inhibitor, single point].
In the case of O=C(CSc1nc2ccccc2[nH]1)N/N=C/C=C/c1ccccc1[N+](=O)[O-], the Potency is reported as active: 4.47 µM.
For COC(=O)c1ccccc1NC(=O)COC(=O)[C@H](C)NC(N)=O, the Potency was inconclusive [inhibitor, partial curve].
In the case of O=C(CC1NCCNC1=O)Nc1cccc([N+](=O)[O-])c1 (configuration not stated), the Potency is reported as inconclusive [inhibitor, single point].
